Series [1] deals with Akt and S6 (phosphorylation, p-Akt/p-S6) in C2C12 mouse skeletal muscle cell line. Briefly: Akt and S6 phosphorylation (western blot) in C2C12 muscle cells. Conditions: 2 hours; for Activity of Akt and S6 compared with control and His tag-wild-type substance (SEQ ID NO: 5): differentiated cell line. Format: cell-based. The protocol:
In order to evaluate functions related to muscle loss diseases, each test substance was treated to the undifferentiated C2C12 mouse skeletal muscle cell line (mouse myoblast cell line) or the cell line in which differentiation into myotubes was completed. Differentiation of the cell line into myotubes was performed by conducting addition of 2% horse serum to culture medium and replacement with new medium every two days for a total of 4 days.
To the undifferentiated or differentiated cell lines, the test substances, fusion proteins (SEQ ID NOs: 1, 2, 3, 7, 14 and 15) were treated at a concentration of 100 nM (Control: PBS treated group) for 2 hours. Thereafter, the cells were immediately washed once and the cells were lysed with RIPA buffer (Radioimmunoprecipitation assay buffer). The activity of Akt and S6 (phosphorylation, p-Akt/p-S6) was observed by western blot. Akt phosphorylation is a well-known marker of activation of cell signaling pathways, and is an indicator of beneficial effects on muscle cells such as promotion of glucose metabolism and promotion of muscle biosynthesis. Similarly, S6 phosphorylation is a well-known marker of mTOR activity, and the activity of mTOR is an indicator showing muscle biosynthesis and various cell signaling pathways.
Background: A western blot detects proteins with antibodies after separation by electrophoresis.

In series [2] the test system is MDA-MB-231 triple-negative breast cancer cell line. The series can be described thus: MTT cell viability in breast cancer cells. Format: cell-based. Conditions: 1 μM, 48 hours; compared with Control (PBS), SEQ ID NO: 4 and SEQ ID NO: 5. Here is the method:
Next, the test substances, the fusion proteins (SEQ ID NO: 1, 2, 3, 7, 14, 15) and shortened sequences (SEQ ID NOs: 9, 10, 11, 12) were treated to MDA-MB-231 triple-negative breast cancer cell line at a concentration of 1 μM (Control: PBS) for 48 hours. Thereafter, the cells were washed with PBS once, and the cells were suspended in serum-free buffer. The MTT (3-[4,5-dimethylthiazol-2-yl]-2,5-diphenyltetrazolium bromide) substance was added thereto at 0.5 mg/ml and incubated at 37° C. for 2 hours. Then, they were washed with PBS once, and the cells were lysed with DMSO for 15 minutes. The solution was transferred to a new plate and the absorbance was measured at 590 nm using a microplate reader.

The test system of another series is MDA-MB-231 cell line. Briefly: Reactive oxygen generation (DCF-FA) in breast cancer cells. The note with it: 1 μM, 24 hours; compared with Control and SEQ ID NO: 5. Format: cell-based. Here is the method:
In addition, in order to examine generation of reactive oxygen that plays an important role in cancer cell death, each test substance was treated to the MDA-MB-231 cell line at a concentration of 1 μM (Control: PBS) for 24 hours. Then, the cells were stained with DCF-FA and their fluorescence values were observed and compared at 485/535 nm.

Another series has as its system cAMP (cyclic AMP). Briefly: cAMP level (hTRF) in undifferentiated 3T3-L1 cells. Format: cell-based, mouse. Conditions: undifferentiated 3T3-L1, 100 nM with 0.5 mM IBMX, 30 minutes; compared with Control and SEQ ID NO: 5. The protocol: To observe the functionality of the fusion proteins related to lipid metabolism, the 3T3-L1 mouse pre-adipocyte cell line was used as the cell line itself (undifferentiated) or by differentiating into adipocytes. Differentiation into the adipocytes was performed by inducing primary differentiation for the 3T3-L1 cells in a medium containing DMEM, 10% FBS, 10 μg/ml insulin, 0.5 mM IBMX (3-Isobutyl-1-methylxanthine), and 1 μM dexamethasone for 2 days, and inducing secondary differentiation with a medium containing DMEM, 10% FBS, and 10 μg/ml insulin for the remaining 4 days. The adipocytes in which differentiation was finally completed were treated with the test substances at a concentration of 100 nM for 30 hours (Control: PBS) and then used for each test.
Next, changes in cAMP (cyclic AMP), a signaling mediator contributing to lipolysis and energy metabolism were evaluated in the undifferentiated adipocytes. The undifferentiated cells were treated with the test substances at a concentration of 100 nM (Control: PBS) with 0.5 mM IBMX for 30 minutes. Thereafter, the level of cAMP was evaluated by the hTRF (Homogeneous Time Resolved Fluorescence) method (using CAMP Gs dynamic kit from Cisbio). As a result of the measurement, it was confirmed that the level of cAMP was higher in the groups treated with the fusion proteins (SEQ ID NOs: 1, 2, 3, 7, 13, 14, 15) and shortened sequences (sequences 9, 10, 11) compared with the Control and His tag-wild-type substance (1-81) (SEQ ID NO: 5) (FIG. 7).
On the technique in general: Cyclic AMP is a second messenger, typically raised through Gs and lowered through Gi signalling.

The subject of a further series is MDA-MB-231 cells. Briefly: Breast cancer xenograft tumor model. Conditions: 7.5 mg/kg subcutaneous 6 times a week for 6 weeks; versus control. Format: in vivo, BALB/c nude mice. The protocol:
MDA-MB-231 cells were injected into immune-deficient BALB/c nude mice, and tumors were allowed to form for one week to establish a xenograft tumor model. The mice in which tumors were formed were randomly divided into a control group and an experimental group (Control: n=8, No. 14: n=7), and PBS to the control group, and the fusion protein (SEQ ID NO: 14) to the experimental group were subcutaneously injected at a dose of 7.5 mg/kg 6 times a week for a total of 6 weeks.

A short description of series [3]: Half-life in mice by ELISA. Format: in vivo. The note with it: C57BL6/J mice, subcutaneous 5 mg/kg. Here is the method: The half-life of the fusion protein was further measured by ELISA (Enzyme-Linked Immunosorbent Assay). Each test substance was subcutaneously injected to the C57BL6/J mice at a concentration of 5 mg/kg, and then blood was separated by time.
The separated blood was added to a 96-well plate coated with a capture antibody, and each well was washed with PBS (phosphate buffered saline) 3 times. A detection solution was added to each well and the wavelengths value thereof were read at 450 nm and analyzed.
For orientation: ELISA stands for enzyme-linked immunosorbent assay.

Series [4] relates to SH-SY5Y dopaminergic neuron cell line. The series can be described thus: Reactive oxygen in neuron cells under rotenone. The format is cell-based. The note with it: 1 µM rotenone + 100 nM test substance, 24 hours; compared with rotenone alone. Here is the method:
The SH-SY5Y dopaminergic neuron cell line was treated with 1 µM of a toxic substance, rotenone and 100 nM of each test substance simultaneously. After 24 hours, the MTT cell viability or the effect of reducing reactive oxygen was observed.

[5] abbreviates: Table 6, C2C12, 100 nM, differentiation state not given.
Setting [6] is: C2C12 differentiated into myotubes, 100 nM, control PBS.
[7] abbreviates: undifferentiated C2C12, 100 nM, control PBS.

B1: SEQ ID NO: 14: Recombinant protein: Shortened substance (1-60)-Shortened linker-Fc fusion (protein)
chain: GSDQSENVDRGAGSIREAGGAFGKREQAEEERYFRAQSREQLAALKKHHEEEIVHHKKEIGGGGS[human IgG1 Fc with C220Q (EU numbers) omitted here]
As for B1, in series [1] (setting [5]), the “Activity (% increase compared to control) Akt” value was determined as 601% and the “Activity (% increase compared to control) S6” value came to 247%. Further, in series [1] (100 nM), the “Activity of Akt and S6 compared with control and His tag-wild-type substance (SEQ ID NO: 5)” value is recorded as “significantly higher activity”. Also, the “Cell viability (MTT)” value in series [2] was “significantly low”. Also, in the series with MDA-MB-231 cell line, the Reactive oxygen generation entry is reported as “generated higher”. The “Level of cAMP” value with cAMP (cyclic AMP) is reported as “higher”. Besides, the “Final tumor size (tumor growth)” value with MDA-MB-231 cells was “significant effect of inhibiting tumor growth”.

B2: SEQ ID NO: 2: Recombinant protein: Shortened substance (1-60)-repeat-type linker-Fc fusion (mutant modified) (protein)
chain: GSDQSENVDRGAGSIREAGGAFGKREQAEEERYFRAQSREQLAALKKHHEEEIVHHKKEIGGGGSGGGGSGGGGS[human IgG1 Fc with changes omitted here]
B2: the Half-life in series [3] was 45.6 h. Further, in series [1] (setting [6]), the “Activity (% increase compared to control) Differentiated Akt” value is 360% and the “Activity (% increase compared to control) Differentiated S6” value came out at 469%. In series [1] (100 nM), the “Activity of Akt and S6 compared with control and His tag-wild-type substance (SEQ ID NO: 5)” value was “significantly higher activity”. Besides, in series [1] (setting [7]), the “Activity (% increase compared to control) Undifferentiated Akt” value stood at 269% and the “Activity (% increase compared to control) Undifferentiated S6” value amounted to 257%. Moreover, the “Cell viability (MTT)” value in series [2] is given as “significantly low”. Besides, the Reactive oxygen generation entry in the series with MDA-MB-231 cell line is given as “generated higher”. Besides, in the series with cAMP (cyclic AMP), the “Level of cAMP” value is “higher”. Further, the “Generation of reactive oxygen” value in series [4] is recorded as “significantly inhibited”.

(Values after patent US20260274910A1, “SINGLE FUSION PROTEIN AND PHARMACEUTICAL COMPOSITION” (MEDI&GENE INC., priority 2023, published 2026).)
